# The campaign covered roughly 110,000 compounds. About 230 (0.21%) showed an effect of 50% or more. The list shows a part of the results.
# Molecular target: DPAP1 (Plasmodium falciparum, UniProt Q8IIJ9)
# Assay: primary screen, percent inhibition; read by cleavage of a fluorogenic dipeptide substrate; higher = more effect of the substance
# Parameters: species or system P. falciparum D10 trophozoite lysates; single well
# 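Further: 30 min substrate incubation versus DMSO and 10 µM JCP410 controls.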
# Sequence of DPAP1 (Q8IIJ9 whole entry, looked up): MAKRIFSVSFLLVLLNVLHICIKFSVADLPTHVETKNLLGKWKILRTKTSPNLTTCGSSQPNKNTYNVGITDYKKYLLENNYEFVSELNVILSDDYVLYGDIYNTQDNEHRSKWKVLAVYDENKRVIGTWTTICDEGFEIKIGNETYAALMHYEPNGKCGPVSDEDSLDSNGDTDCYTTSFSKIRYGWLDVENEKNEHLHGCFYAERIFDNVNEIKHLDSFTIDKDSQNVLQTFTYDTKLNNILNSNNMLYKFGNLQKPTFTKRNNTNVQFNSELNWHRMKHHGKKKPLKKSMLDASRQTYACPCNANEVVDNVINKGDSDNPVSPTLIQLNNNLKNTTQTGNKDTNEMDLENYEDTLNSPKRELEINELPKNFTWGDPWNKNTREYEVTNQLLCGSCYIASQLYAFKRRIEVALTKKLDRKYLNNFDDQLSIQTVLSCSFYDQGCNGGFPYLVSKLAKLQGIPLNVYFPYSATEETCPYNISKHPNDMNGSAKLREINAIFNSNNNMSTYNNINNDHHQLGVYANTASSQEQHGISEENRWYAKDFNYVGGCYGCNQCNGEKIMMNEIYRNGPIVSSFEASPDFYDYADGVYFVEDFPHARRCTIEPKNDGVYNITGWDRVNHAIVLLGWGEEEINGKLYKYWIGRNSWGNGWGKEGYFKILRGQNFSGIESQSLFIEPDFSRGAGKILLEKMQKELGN
row,Compound,% Inhibition @ 10 uM
1,O=C(CN1C(=O)S/C(=C\c2cc(Cl)c(O)c(Cl)c2)C1=O)Nc1ccccc1,2.22%
2,O=C(CSc1ccc(Cl)cc1)Nc1ccc(N2CCN(C(=O)c3cccs3)CC2)cc1,2.84%
3,CN(C)c1ccc(C2Nc3ccccc3N=C3CC(c4cccs4)CC(O)=C32)cc1 (stereo not shown),-4.12%
4,CCCCNC(=O)c1c(C)cc(=O)oc1C,-4.06%
5,COCCN1C(=O)/C(=C/c2cccs2)S/C1=N\c1ccccc1,-7.1%
6,CCCOc1ccc(C(=O)Nc2ccc(N3CCN(C)CC3)cc2)cc1,-2.29%
7,COCCN1C(=O)/C(=C/c2ccc(O)c(Br)c2)S/C1=N\c1ccccc1,9.72%
8,O=S(=O)(NC1CCCCC1)c1ccc(Sc2ccc(S(=O)(=O)NC3CCCCC3)cc2)cc1,-2.55%
9,Brc1ccc2ncnc(NCCc3ccccc3)c2c1,-6.87%
10,Cc1cc(-c2ccc(S(=O)(=O)NCc3ccc4c(c3)OCO4)s2)on1,-0.695%
11,Cc1cc(C(F)(F)F)nn1CC(=O)Nc1sc2c(c1C#N)CCC(C)C2 (stereo not shown),4.39%
12,O=C(Nc1cccc(NC(=O)c2ccccc2Cl)c1)c1cccc([N+](=O)[O-])c1,-2.03%
13,Cc1[nH]c2ccccc2c1C1=CCN(S(=O)(=O)Cc2ccccc2)CC1,-8.68%
14,O=S(=O)(c1ccc2[nH]ccc2c1)N1CCCCCC1,-3.53%
15,Cc1nc(NCCc2c(C)[nH]c3ccccc23)c2c3c(sc2n1)CCC3,5.76%
16,CCOc1ccc(CCNC(=O)C2CCCN2C(=O)OCc2ccccc2)cc1OCC (stereo not shown),-0.458%
17,COc1ccc(NC(=O)CN(c2cc(Cl)ccc2C)S(C)(=O)=O)cc1OC,-4.56%
18,c1ccc2c(c1)c(SC1CCCCC1)nn1nnnc21,6.1%
19,CCOc1ccc(C2c3c(oc4ccccc4c3=O)C(=O)N2c2ccccn2)cc1OC (stereo not shown),-3.64%
20,CC(C)(C)C1CCc2c(sc(NC(=O)c3cccnc3)c2C(N)=O)C1 (stereo not shown),1.64%
21,COc1ccc(-c2cc(C(=O)NC3CCCCC3)c3ccccc3n2)cc1,-0.13%
22,CCOc1ccc(-n2c(-c3ccc(O)c(O)c3)cn3c4c(=O)n(C)c(=O)n(C)c4nc23)cc1,5.45%
23,CC(NC(=O)c1ccccc1)c1cc2c(cc1Cl)OCCCO2 (stereo not shown),0.475%
24,O=C1CC(c2cn(Cc3ccccc3)c3ccccc23)C(=O)N1c1ccccc1 (stereo not shown),1.24%
25,CSc1ccc(CN2CCN(Cc3ccccc3)CC2)cc1,-3.13%

row,Compound,% Inhibition @ 10 uM
1,Cc1nc2ccccc2c(O)c1CN1CC2(C)CC1CC(C)(C)C2 (stereo not shown),-4.93%
2,COc1cc(-n2nnnc2SCC(=O)Nc2nnc(C)s2)c(OC)cc1Cl,-2.72%
3,O=C(O)CCNC(=O)/C(=C/C=C/c1ccccc1)NC(=O)c1ccccc1,0.587%
4,CCOc1ccc(CCNC(=O)c2cc3cc4cc(OC)ccc4nc3o2)cc1OCC,-1.54%
5,COc1cccc2c1Oc1ncccc1N(c1ccc(C(=O)O)s1)C2,-0.0309%
6,CCOc1cccc2cc(-c3nnc(NCc4ccc5c(c4)OCO5)s3)c(=O)oc12,10.6%
7,COc1cc(OC)cc(C(=O)N2CCN(Cc3cc(OC)ccc3OC)CC2)c1,9.88%
8,Cc1ccc(N2C(=O)CC(N3CCC(O)(c4ccc(Br)cc4)CC3)C2=O)cc1 (stereo not shown),13.7%
9,CCOc1ccc(C(=O)C2=C(O)C(=O)N(Cc3cccnc3)C2c2ccc(F)cc2)cc1C (stereo not shown),-1.93%
10,Cc1cc(C)nc(NS(=O)(=O)c2ccc(NC(=O)C3(c4ccccc4)CCCC3)cc2)n1,1.89%
11,Cc1ccc(CNC(=O)CN(C)S(=O)(=O)c2ccc3[nH]c4c(c3c2)CCCC4)cc1,5.14%
12,Cc1ccc(NC(=O)COc2ccc(S(=O)(=O)NC3CCCCC3)cc2)c(C)c1,-2.67%
13,CC(C)c1ccc(/C=C/C(=O)Nc2cccc3ccccc23)cc1,1.96%
14,Cc1ccc2[nH]c3c(c2c1)CCCC3CN (stereo not shown),-3.6%
15,Cc1nn(C(C)C(=O)NCCN(C)C)c(=O)c2nn(-c3ccccc3)c(C)c12 (stereo not shown),-2.68%
16,O=C(Nc1ccc2ccccc2c1)C1CC(=O)N(c2ccccc2)C1 (stereo not shown),0.76%
17,Cc1ccn(CCC(=O)NCCc2nc3cc(F)ccc3[nH]2)n1,1.28%
18,C#CCOc1c(Cl)cc(C2C(C#N)=C(N)Oc3[nH]nc(C)c32)cc1OC (stereo not shown),-4.67%
19,COc1ccccc1C(=O)Nc1nc2n(n1)C(c1ccccc1)C=C(C)N2 (stereo not shown),-3.96%
20,O=C(/C=C/c1ccc2c(c1)OCO2)N1CCOCC1,-0.351%
21,COc1ccccc1Nc1nc(Cl)nc(NC(C)(C)C)n1,-1.76%
22,CC1(C)OC[C@H]2O[C@@H](Oc3cccc4ccccc34)[C@H](O)[C@@H](O)[C@@H]2O1,1.4%
23,CN(Cc1ccccc1)C(=O)CN1CCCC1=O,11.8%
24,N#Cc1c(NC(=O)C2c3ccccc3Oc3ccccc32)sc2c1CCCC2,3.94%
